In PubChem BioAssay (NCI):
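Cultured in 96-well plates, cells were exposed to test compound for 48 hours across five concentrations. GI50 marks 50% less growth. TGI: total growth inhibition.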

Test system: NCI-H322M lung
Experiment: growth of human tumour cells (NCI), 48 h

Cc1cc2c(=O)[nH]nc(N)c2c(N)n1
TGI: > 100 µM

CSc1ccc(C2=NN(C(=O)c3ccc(N)cc3)C(c3ccc(F)cc3)C2)cc1 (stereo not drawn)
GI50: 14.5 µM
TGI: 27.9 µM

COc1cccc2c1C(=O)c1c(O)c3c(c(O)c1C2=O)C[C@@](O)(/C(C)=N/NC(=O)c1ccc(Cl)c(Cl)c1)C[C@@H]3OC1CC(N)C(O)C(C)O1 (stereo partly drawn)
TGI: 2.29 µM

NC(=O)CCC(NC(=O)C(F)(F)F)C(=O)O (stereo not drawn)
TGI: > 100 µM

CC(C)(C)c1cc(C(C)(C)C)c2sc(=S)oc2c1O
TGI: 25.3 µM

Cc1cc2nc3c4ccccc4n(CCN(C)C)c3nc2cc1C
GI50: 1.86 µM
TGI: 7.6 µM

COP(=O)(C(/C=C/c1ccccc1)OC(C)=O)[C@@H]1CCCC[C@H]1N(CC(C)(C)C)C(C)=O (stereo partly drawn)
TGI: > 100 µM

N#CC[C@H](C1CCCC1)n1cc(-c2ncnc3[nH]ccc23)cn1
GI50: 23.2 µM
TGI: > 100 µM

CC12C(=O)N(CCN)C(=O)C1C1c3ccccc3C2c2ccccc21 (stereo not drawn)
TGI: > 100 µM

C[N+]1=c2c3cccc4cccc(c(=O)n2CCC1)c43
TGI: 70.1 µM

O=C(NNC(=O)c1ccccc1Cl)c1ccccc1O
TGI: > 100 µM

O=C(O)c1cc(N(Cc2ccccc2O)Cc2cc(O)ccc2O)ccc1O
TGI: > 100 µM

COc1ccc(C2S/C(=C\c3cccc(O)c3)C(=O)N2NC(=O)Cc2ccccc2)cc1 (stereo not drawn)
TGI: > 100 µM

Oc1[nH]c2ccccc2c1N=NC(=S)N1CCCC1
TGI: 47.9 µM

COC(=O)CCc1ccc2c(c1)CC1(C2)Cc2ccc3c(c2C1)CCC3 (stereo not drawn)
TGI: > 100 µM

C=C(C)[C@@H]1CC[C@]2(C)[C@H](C=CC3=C4C[C@@](C)(CO)CC[C@]4(C)CC[C@]32C)[C@@]1(C)CCCN
GI50: 1.57 µM
TGI: 2.91 µM

N#Cc1ccccc1Nc1ccccc1S
TGI: > 100 µM

Cc1ccc(S(=O)(=O)NCCSS(=O)(=O)c2ccc(C)cc2)cc1
TGI: > 100 µM

FC(F)(F)C1(C(F)(F)F)C2CCC3(CC(F)(F)C(F)(F)S3)C1C2 (stereo not drawn)
TGI: > 100 µM

Cc1cc(-c2nc3cc(F)ccc3s2)ccc1NC(=O)C(C)N (stereo not drawn)
TGI: 6.46 µM

CC(C)(C)C[P+](C)(C)c1ccccc1
TGI: > 100 µM

N#C/C(=C\c1ccc(O)cc1O)C(N)=O
TGI: > 100 µM

COc1cccc(-c2cc(=O)c3cccnc3[nH]2)c1
TGI: > 100 µM

O=C(/C=C/c1cccc(B(O)O)c1)c1cccc(B(O)O)c1
GI50: 2 µM
TGI: 6.86 µM

COc1c2ccoc2c(S(=O)(=O)Nc2ccc(Cl)cc2)c2oc(C)cc(=O)c12
TGI: > 100 µM

C[C@]12CCCC(=O)C1C[C@H](C(=O)O)CC2 (stereo partly drawn)
TGI: > 100 µM

CCOC(=O)CNC(=O)C(CSC(=O)N(C)O)NC(=O)CCC(N)C(=O)O (stereo not drawn)
GI50: > 2000 µM
TGI: > 2000 µM

Cc1ccccc1NC(=O)C(=O)Cc1cnc2ccccc2n1
TGI: > 100 µM

Cc1cccc(N=C2NC(=O)C(CC(=O)Nc3ccc(Cl)cc3C)S2)c1 (stereo not drawn)
TGI: > 100 µM

NCCc1ccc2c(c1)C(=O)c1c(O)ccc(O)c1C2=O
TGI: > 100 µM

FC(F)(F)C1=NC(=NNc2nnc(-c3ccccc3)c(-c3ccccc3)n2)N=C(C(F)(F)F)C1
TGI: > 100 µM

N#CC(c1ccccc1)(c1ccccc1)[C@@H](c1ccccc1)[C@H](Cc1ccccc1)NS(=O)(=O)c1ccccc1
TGI: > 100 µM

CC1CC(NN(C)C)C2(C(N)=O)C(N)=NC(=O)C12C#N (stereo not drawn)
TGI: > 100 µM

CC[C@H](C)[C@H](NC(=O)C12CC(NC(C)=O)(C1)C2)C(=O)N(C)[C@H](C[C@@H](OC(C)=O)c1nc(C(=O)N[C@@H](Cc2ccccc2)C[C@H](C)C(=O)OC)cs1)C(C)C
GI50: 0.888 µM
TGI: > 16.7 µM

CN(CC#N)C(=O)Cc1ccc([N+](=O)[O-])cc1
TGI: > 10 µM

CC1C(=O)C23OC[C@@]1(C)C1(O)CC[C@@H](C)[C@]21CC3=O (stereo partly drawn)
TGI: > 100 µM

CCOC(=O)[C@H]1C[C@]23CN(C(=O)OC(C)(C)C)CC[C@H]2CCC2(SCCCS2)[C@@H]3N1C
TGI: > 100 µM

CS[C@@]1(C(=O)Nc2ccc3[nH]nc(-c4ccc(OC(C)C)nc4)c3c2)CCN(CC(=O)N2CC=C(c3ccc(-c4ncn(C)n4)cc3)CC2)C1
GI50: 0.455 µM
TGI: > 100 µM

CC(O)=NC(Cc1ccc2ccccc2c1)C(O)=NC(Cc1ccc(Cl)cc1)C(O)=NC(Cc1c[nH]c2ccccc12)C(O)=NC(CO)C(O)=NC(Cc1ccc(O)cc1)C(O)=NC(CCCN=C(N)N)C(O)=NC(CC(C)C)C(O)=NC(CCCN=C(N)N)C(=O)N1CCCC1C(O)=NC(C)C(=N)O (stereo not drawn)
TGI: 64.3 µM

NC(N)=NS(=O)(=O)c1ccc(NNc2c3ccccc3nc3c(C(=O)Nc4ccc(S(N)(=O)=O)cc4)cccc23)cc1
TGI: > 100 µM

CCc1ccccc1-n1c(N)c(C#N)c(-c2ccc(OC)c(OC)c2)c(C#N)c1=O
GI50: 23.4 µM
TGI: 69.2 µM

Cn1c2c(cc(-c3ccccc3)c1=O)COc1ccccc1-2
TGI: > 100 µM

CN(C)CCC(C(=O)C(C)(C)C)c1ccccn1 (stereo not drawn)
TGI: > 100 µM

Brc1ccc(Br)nn1
GI50: 7.92 µM
TGI: 20.6 µM

C=C1CO[C@@H]2C[C@@H]1CC/C(C)=C/CC/C(C)=C/CC[C@@]2(C)O
GI50: 16.1 µM
TGI: 40.1 µM

Cc1c(N2C(=O)/C(=C\c3ccc(N(C)C)cc3)N=C2c2ccccc2)c(=O)n(-c2ccccc2)n1C
GI50: 47.5 µM
TGI: > 100 µM

CC(C)N(C[C@H]1O[C@@H](n2cnc3c(N)ncnc32)[C@H](O)[C@@H]1O)C1CC(CCc2nc3ccc(C(C)(C)C)cc3[nH]2)C1 (stereo partly drawn)
GI50: > 100 µM
TGI: > 100 µM

CS(=O)(=O)OCc1c(O)c2c(c(O)c1COS(C)(=O)=O)C(=O)C=CC2=O
TGI: > 100 µM

COc1ccc(-n2c(=O)n(C)c(=O)n2-c2c(C)c(C)c(C)c(C)c2C)cc1
TGI: > 100 µM

O=C(Nc1ccc(F)cc1)c1cc2ccc(O)cc2oc1=Nc1ccccc1F
TGI: 40.7 µM

O=C1c2ccccc2C(=O)c2c(NC(=O)c3ccc4c5c(ncnc35)-c3ccccc3C4=O)cccc21
TGI: > 100 µM

O=C(Nc1ccc(S(=O)(=O)NC2CCCCCC2)cc1)C(c1ccccc1)S(=O)(=O)c1ccc(F)cc1 (stereo not drawn)
GI50: 0.327 µM
TGI: 4.23 µM

O=C1N[C@@H]2c3c(Br)sc(Br)c3C(=O)[C@@H]2N1
TGI: 20.5 µM

C[n+]1c(-c2ccc(/C=N\NC(=O)c3ccc(C(=O)N/N=C/c4ccc(-c5cn6ccsc6[n+]5C)cc4)cc3)cc2)cn2ccsc21
TGI: 39 µM
